Measured values as given in paper PMC12136788.
This is one part of the list.

B1: chr16:68260615:68260616:+_ENSG00000072736_ENST00000346183|hu_mus|motif|central (ssRNA)
RNA: GGGAGUUCUACAGUCCGACGAUCUCUGAGAUAGAGCCUGCUGCAUUCACACUCAAAGCACCCAUCAUAUAAAAGUAUCCGGUUUAAAUAUAUAUAUAUAUAUAUAUAUAUAUAUAUAAAAGCAAAGCUCGUUUCCCACAGCUGCAACAGAGGAUUGAGCAUCA
B2: chr12:89993059:89993060:-_ENSG00000070961_ENST00000261173|hu_hu|FALSE|FALSE (ssRNA)
RNA: GGGAGUUCUACAGUCCGACGAUCAGGUAUUUCUUCCUUUUGUGUUCCAUGACCAGCUUCUUUGAGGAAUUUUAAACGGCUAGUUGGAAUUGUUGAAAUAAGCUGGCCCCAGAGUAAUGUUCCCAUUCCUAGGAAUAUUGACCACAACAGAGGAUUGAGCAUCA
B3: chrX:71482573:71482574:-_ENSMUSG00000031328_ENSMUST00000144429|mus_mus|FALSE|FALSE (ssRNA)
RNA: GGGAGUUCUACAGUCCGACGAUCCUCCCACUGAAAAUGGACUCUUGGGGAUGUGAUCUCCUCCAUAAGUGACAUUGACACCUACUGGGCCCUGCUGCACAGGAAUGUACUUGACUGUGUAGGUAUUAUCAUGGUGGUCAAUGACAACAGAGGAUUGAGCAUCA
B4: chr1:225611761:225611762:-_ENSG00000143815_ENST00000272163|hu_mus|hu_hu_hu_mus_True|18_48 (ssRNA)
RNA: GGGAGUUCUACAGUCCGACGAUCCCAGGCCAUCGGCCUCUGACCACUUCACCCUCAACAAACUUCCUACUUGGCAUUUUCUAAAAUUAACCUGCGCGCGCUCCGGCGGGAACUCCAGACGGCUCCCGACAGUCACCAGCAGCCCAACAGAGGAUUGAGCAUCA
B5: chr12:121221538:121221539:-_ENSG00000157837_ENST00000353487|hu_mus|motif|central (ssRNA)
RNA: GGGAGUUCUACAGUCCGACGAUCGAGGUGAGCAGGGCCUUGUUAAAUACUGGCACAUCGGGAGAAGAAGAAAAGCAAAAGCGGUUGUUGCAAGAACUGCUGUACAUAUUGUGAAAACGACUUGAACUGAAUCAAAGAAGAAGACAACAGAGGAUUGAGCAUCA
B6: chr7:149068622:149068623:-_ENSMUSG00000025139_ENSMUST00000001950|mus_hu|mus_mus_mus_hu_False|48_98 (ssRNA)
RNA: GGGAGUUCUACAGUCCGACGAUCGUGAGGCCUCUGAGUGAGGUUCCUGGUCUGUCCUGGGUUAGAGUUGUUAAUAUCACGGAACAUACCACUUAAGACGUUCCAGUCCCGCCUGACACCUUCAUUCCCAAUGGAGAAGAAAUCCAACAGAGGAUUGAGCAUCA
B7: chr7:141445308:141445309:+_ENSG00000106028_ENST00000265304|hu_hu|hu_hu_hu_mus_False|38_68 (ssRNA)
RNA: GGGAGUUCUACAGUCCGACGAUCUAUGAUUGUUGUUGCUUGCCGCCUCACAUUGUUUUUAUCCAUGUAUUCACCAUAGUCCACUUUCCCUUCCACAUAAAUUCGAGCCCCCUUUUUCACAUACUGAUAUGCCACAUCUCUGAGCAACAGAGGAUUGAGCAUCA
B8: chr12:105536279:105536280:+_ENSG00000136051_ENST00000332180|hu_mus|hu_hu_hu_mus_True|1_78 (ssRNA)
RNA: GGGAGUUCUACAGUCCGACGAUCAGCACUGAACAUGUAAUGUAAUCUGGCUGCAUCAACAGCAUUUUCAUAUACAUCAUCUAAAUAAAUCGGGAAGACAGCGCGAUGCCAGUAUAAAAAACAGCAGUCACACUGUGUUUGGACCAACAGAGGAUUGAGCAUCA
B9: chr9:111175386:111175387:+_ENSMUSG00000046785_ENSMUST00000060711|mus_mus|motif|central (ssRNA)
RNA: GGGAGUUCUACAGUCCGACGAUCCUCAGUUAGUAGAGGCUGAAACUCCGGUCGCCUAACACCUCUGGUCUUAAUCAUAACGGCCCAUUCAGAUAUGGUAUUUAUGAUCUGAUUAAUAUCAACAUCAUAAGAACUCAACAGUUCCAACAGAGGAUUGAGCAUCA
B10: chr14:32562060:32562061:+_ENSG00000100852_ENST00000539826|hu_hu|FALSE|FALSE (ssRNA)
RNA: GGGAGUUCUACAGUCCGACGAUCCUUUAUUUGGGUUUCAUUAAAUUUACGAGGAUAUGUACCAGCAGGUACAUCUACAAAAGGACAUUGCAACUUGUUUGCCAACUGCUGCCCUUGGUGCCUGAGAAUUGGUAGAUUCUUACUCAACAGAGGAUUGAGCAUCA
B11: chr16:75674161:75674162:-_ENSG00000065427_ENST00000302445|hu_hu|FALSE|FALSE (ssRNA)
RNA: GGGAGUUCUACAGUCCGACGAUCCCUACCUGCCACCUUUAAGGUGAUGUCAGUCAGGUGAUCCCCAGGCUGCAGGUGACUAUAUUUUUGGAUGAAGUCAGUGAGUGAGAUGUCUACAUGGAACUUGUGUGGGUAUGGGUCUUCCAACAGAGGAUUGAGCAUCA
B12: chr4:57314706:57314707:+_ENSG00000128050_ENST00000264221|hu_mus|hu_hu_hu_mus_True|58_58 (ssRNA)
RNA: GGGAGUUCUACAGUCCGACGAUCCAGAAUUUCAAAAAUAGCUUGUGUGGCAUGACUCAUGAUGUCCACUUCAGUCUGGCCUAUAAGAAGGCCAGCAAAACAGAAUUUUGCAGCAAUGAGUUGCUCCUCAGACCACUGUGGAUCCAACAGAGGAUUGAGCAUCA
B13: chr7:7679991:7679992:-_ENSG00000106399_ENST00000396682|hu_hu|hu_hu_hu_mus_False|8_68 (ssRNA)
RNA: GGGAGUUCUACAGUCCGACGAUCUGGGAUGAAUCUUUUCCAGCUUCCCCACGAAGCACACGGGCCGGUCGAUGAAUUGUGGUAACAUGCUGGCGUUGACGCGCGCUUUGGGGAGCUGCAUUAUGUCCACCAUGAUUCUGCCGCCAACAGAGGAUUGAGCAUCA
B14: chr1:23637546:23637547:-_ENSG00000125944_ENST00000302271|hu_hu|motif|central (ssRNA)
RNA: GGGAGUUCUACAGUCCGACGAUCGUAGUAAUCUGGAGGGUAGCCAUAUCCACCUCUCCCCCCACCACGACCCCGACCUCGGAUUGGAGGUGGCAUGCGAGGAGGAGGGUGGUAGUAAUAAUCUUCAUACGCAGUGCUUCUGGACAACAGAGGAUUGAGCAUCA
B15: chr4:83122263:83122264:-_ENSMUSG00000028484_ENSMUST00000107214|mus_hu|motif|central (ssRNA)
RNA: GGGAGUUCUACAGUCCGACGAUCAUUUGAUUGUUUAGUUGCUGCCUGUUGACUUGAAAAUUUCACUUUUGGAUUGUUAUCGGUCUCCCAUAAACCUUCAUUAAAACCUUUUCUUUUAUUUGGUUUGCCAUACUUUUCCUUAUUCAACAGAGGAUUGAGCAUCA
B16: chr1:163117127:163117128:-_ENSG00000143248_ENST00000313961|hu_mus|hu_hu_hu_mus_False|1_108 (ssRNA)
RNA: GGGAGUUCUACAGUCCGACGAUCUGCGGGUUAUUAUGUAACUCAACUCACAGGGCAACUUUUGGAAGCCUGACCAGAUGACUACUUGAUUAGCUCCUUAUAAAAUUCAGAGCGCACAAAGCGGGGCAGAGAAUCCUUUUCCAUCAACAGAGGAUUGAGCAUCA
B17: 32875545_32884045_1281_3pUTR_ENSG00000087470_ENST00000452533|human|control|control (ssRNA)
RNA: GGGAGUUCUACAGUCCGACGAUCAAAUGUCAAUAGUGUUAAGGCCACCAAGUGGAUCAACAGAUUCUAAGGUUCGCCCAAAAGUCUCAUGGAAAAUAUAACAAAUUCUAGCACCACCGCAUAGCUCCGAAGUUUCAAUAUAUUCAACAGAGGAUUGAGCAUCA
B18: 83243669_83244672_1640_3pUTR_ENSMUSG00000031715_ENSMUST00000043359|mouse|control|control (ssRNA)
RNA: GGGAGUUCUACAGUCCGACGAUCUAUGUCUAUAUCUUUCAUUAAUAUCCGAGUAUACCAUUCUCUUUGCAUUUUGCUAAGACCCACAUAGAUUUUUACUUCUUUUUUUGGAGGCAAACUCUUUUCAACAUCAGCUUUAAUUCGCAACAGAGGAUUGAGCAUCA
B19: 56177021_56177438_2351_3pUTR_ENSG00000095015_ENST00000399503|human|control|control (ssRNA)
RNA: GGGAGUUCUACAGUCCGACGAUCGACUGCAAAGCAAAGGUUAAGAGGGACAGCAGCUUCUUAUACCUGAUUUCAACAGGCUCAGCUUGUGAAACAUCAGUACUGACAAUAUGAGGAUAAAAUUCAGCAGGAAAUUCCAACAACCAACAGAGGAUUGAGCAUCA
B20: chr13:100194276:100194277:-_ENSMUSG00000052727_ENSMUST00000064762|mus_hu|FALSE|FALSE (ssRNA)
RNA: GGGAGUUCUACAGUCCGACGAUCAAUCUUGCCAGAACUUCAAAAAACAUUAUUCAAUUUUUGUCUUACGAAACACUUAAAAAAAAAGACUAUCACUUGAGAAUUUUCUUUGCAAUUUCCUGUAAAUGAAAACAUUUGUUAAAACAACAGAGGAUUGAGCAUCA
B21: 2585564_2585684_2212_3pUTR_ENSG00000007168_ENST00000397195|human|control|control (ssRNA)
RNA: GGGAGUUCUACAGUCCGACGAUCAAUAUAUCCUACUGAUUUGGCAAAUGUGUCAUGACAAAAAUUCCAAUGUAUAAUCCCCAUUCAUUACAUAGAUGGUUCAGAAGAUUCUGAAUUGUAGCCUUAUCAUCUAAAAUCCUUACACAACAGAGGAUUGAGCAUCA
B22: 50285228_50296650_2469_3pUTR_ENSMUSG00000043531_ENSMUST00000164039|mouse|control|control (ssRNA)
RNA: GGGAGUUCUACAGUCCGACGAUCCUUCCCUGGACACUUCUGUGGUUUGGCGGUAUACUGCUCUCUCACUCCAUCAGUACAAUUAUUGGAGACCACCUUCCUAUACCCAGUGCUGUUGAGGUAACUCUGUCCCAAGCUGCAGUCCAACAGAGGAUUGAGCAUCA

Each binder was assayed against T1, UNK ZnF1-3 (human, UniProt Q9C0B0 31-174) (assay: nsRBNS (natural sequence RNA bind-n-seq); RBNS binding buffer (assumed for nsRBNS): 25 mM Tris pH 7.5, 150 mM KCl, 3 mM MgCl2, 0.01% Triton X-100, 500 ug/ml BSA, 20 U/ml SUPERase-In, 4 C; UNK is unkempt and MSI1 is Musashi-1; names of the RNAs are library labels; protein concentration not given here; high values mean tight binding).
T1 sequence: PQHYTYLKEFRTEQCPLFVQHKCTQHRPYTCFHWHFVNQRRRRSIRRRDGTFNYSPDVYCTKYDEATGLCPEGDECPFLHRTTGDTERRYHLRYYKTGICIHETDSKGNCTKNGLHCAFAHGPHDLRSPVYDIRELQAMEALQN

Binder | binding signal
B1 | 1.08 enrichment R
B2 | 0.72 enrichment R
B3 | 0.766 enrichment R
B4 | 1.38 enrichment R
B5 | 2.68 enrichment R
B6 | 0.72 enrichment R
B7 | 0.685 enrichment R
B8 | 2.3 enrichment R
B9 | 0.749 enrichment R
B10 | 0.672 enrichment R
B11 | 0.846 enrichment R
B12 | 0.819 enrichment R
B13 | 0.493 enrichment R
B14 | 0.564 enrichment R
B15 | 0.509 enrichment R
B16 | 0.896 enrichment R
B17 | 1.92 enrichment R
B18 | 0.553 enrichment R
B19 | 1.81 enrichment R
B20 | 1.11 enrichment R
B21 | 0.704 enrichment R
B22 | 0.872 enrichment R
